# Data reported in publication PMC12136788.
# The list shows a part of the results.
# B1: chr12:71585298:71585408:+|3pUTR|ENSG00000139292|unk|total|mutant (ssRNA)
# RNA: GGGAGUUCUACAGUCCGACGAUCUUGUUAACUCACUCAUAUUGAGAUCAUUUUCCGAGAUACCAGGUUUUAUGUAUCAGCACCCGAUGGUUCCACCCUCAUGGGAUAAAACUGCUUACAAGUAUUUUGAAAGAAAAACUGACCCAACAGAGGAUUGAGCAUCA
# B2: chr19:811491:811550:+|3pUTR|ENSG00000011304|msi1_unk|total|mutant (ssRNA)
# RNA: GGGAGUUCUACAGUCCGACGAUCCCGCAAUAUUUCCAGUUGACCAAAUAUUCUAAUCUUUUUUCAUUUAUAUGCAAAAGAAACCGUUUUAAGUAACUUUUUACCGCAAGAUGAUACAAUGGUAUGAGUGUAAUCUAAACUUCCCAACAGAGGAUUGAGCAUCA
# B3: ENSG00000197063:stop:overlap|stop_codon|ENSG00000197063|stop_codon|NA|stop_codon (ssRNA)
# RNA: GGGAGUUCUACAGUCCGACGAUCGCAAGGUGGCCGCCACCAGCGUCAUCACAAUAGUAAAGUCCAAGACGGAUGCCCGAUCGUAGGGACGCGCGUCUGCCCAGGCGGGUCUUUGCGGGGCCACUAGGCACAUGGCGAAUUUGGCAACAGAGGAUUGAGCAUCA
# B4: chr6:33573622:33573723:-|3pUTR|ENSG00000030110|unk|FALSE|unique (ssRNA)
# RNA: GGGAGUUCUACAGUCCGACGAUCCGAAGUCUUUGCCUUCUCUGUUCCCUUGCAGGGGUCCCCCCUCAAGAGUACAGAAGCUUUAGCAAGUGUGCACUCCAGCUUCGGAGGGCCCCUGCGUGGGGGCCAGUCAGGCUGCAGAGGCAACAGAGGAUUGAGCAUCA
# B5: chr7:66987971:66988072:-|3pUTR|ENSG00000126524|unk|FALSE|unique (ssRNA)
# RNA: GGGAGUUCUACAGUCCGACGAUCAAGUUACUUGAGGCAGCUCUUGUGGGUGAAAAGUUAUUUGUACAGUAGAGUAAGAUUAUUAGGGGUAUGUCUAUACAACAAAAGGGGGGGUCUUUCCUAAAAAAGAAAACAUAUGAUGCUCAACAGAGGAUUGAGCAUCA
# B6: chr2:55866929:55867030:-|3pUTR|ENSG00000115380|msi1|total|mutant (ssRNA)
# RNA: GGGAGUUCUACAGUCCGACGAUCAUUUAAGUCAGCCAAAGAAUAUUGUUACCUUAAAGCACUAUUUUAUUUACCGAUAUAUCCCGUGCAUCUACAUCUCUAUACUGUACACUCACCCAUAAUUCAAACAAUUACACCAUGGUACAACAGAGGAUUGAGCAUCA
# B7: ENSG00000198589:be:win_4301|CDS|ENSG00000198589|bound_else_gene|NA|bound_elsewhere_windowed (ssRNA)
# RNA: GGGAGUUCUACAGUCCGACGAUCUGUCAUCUGGAGGAAUUUUGCGGCAGUGUCUCCGACUAGUUUGUGCAGUCGCAGUAAGGAAUUGCUUGGAGUGUCAACAGCAUUCACAACUGAAAACUAGGGGAGAUAAAGCCUUGAAACCAACAGAGGAUUGAGCAUCA
# B8: chr20:17613772:17613873:-|3pUTR|ENSG00000125844|unk|total|mutant (ssRNA)
# RNA: GGGAGUUCUACAGUCCGACGAUCAGCCCCGUGGGUGUGUGGGAGGCCGGGCGCUCUGGGGUCUGUCUGUCAGUGCAAUCGUUCCGUGUUUUUUCAGUGGGGCGGGGCGGGAAGCGGGUGGGACCGGGCAGCCAGUUCUCAAAGCAACAGAGGAUUGAGCAUCA
# B9: chr8:129748195:129748500:-|three_prime_utr|ENSG00000147697|control|control|control (ssRNA)
# RNA: GGGAGUUCUACAGUCCGACGAUCUCCAGAGAUGCUGGCCCUCGCCCAGUCUAUGCUGUGAGUGUCCUUAUGGGUGCAAGAGAUAGGGCUGUGCCUCUCUGCGUUUCCAGGUGGAGUAGAGACAGUAAUGGGUAGAGACUUUAGCAACAGAGGAUUGAGCAUCA
# B10: chr1:156668797:156668898:-|3pUTR|ENSG00000132688|msi1|FALSE|bound_elsewhere (ssRNA)
# RNA: GGGAGUUCUACAGUCCGACGAUCUGACGGCACUCCCAUGUGCUGACUCCCCCCAUCCCUGCCACGCUGUGGCCCUGCCUGGCUAGUCCCUGCCUGAAUAAAGUAAUGCCUCCGCUUCAAAGUCUGGACUCUUCUUUCCCCCACCAACAGAGGAUUGAGCAUCA
# B11: chr14:88572724:88572825:+|CDS|ENSG00000100722|unk|FALSE|unique (ssRNA)
# RNA: GGGAGUUCUACAGUCCGACGAUCGUGACACUUACAUAUGGUUCUUCUCGCCCUUCUAUUGAAAUUUAUCGACCACCUGCAAGUAGAAAUGCAGAUAGUGGUGUUCAUUUAAACAGGUUGCAAUUUCAACAGCAGCAGAAUAGUCAACAGAGGAUUGAGCAUCA
# B12: chr12:30637093:30637194:-|CDS|ENSG00000133704|unk|FALSE|bound_elsewhere (ssRNA)
# RNA: GGGAGUUCUACAGUCCGACGAUCUGUCUACAUUUUUUUUUUCUUCAAAAUUUGCAGGCAUCAUGACCGGAAGAUGUGUAUAAUAGGACUGAGUAUCCUUUUGGAAUUGCAAAAUCGACCUCCUGCAGUAGAUGCUGUGGUGGGCAACAGAGGAUUGAGCAUCA
# B13: ENSG00000124766:be:win_3551|3pUTR|ENSG00000124766|bound_else_gene|NA|bound_elsewhere_windowed (ssRNA)
# RNA: GGGAGUUCUACAGUCCGACGAUCCGUUUAAACCACUGGAUCUAUCUAAAUGCCGAUUUGAGUUCGCGACACUAUGUACUGCGUUUUUCAUUCUUGUAUUUGACUAUUUAAUCCUUUCUACUUGUCGCUAAAUAUAAUUGUUUUCAACAGAGGAUUGAGCAUCA
# B14: chr1:40238196:40238297:+|CDS|ENSG00000117000|msi1|total|mutant (ssRNA)
# RNA: GGGAGUUCUACAGUCCGACGAUCCGGUAUUCCCCAUUUCAGUGUCAUAUUUGCCAAAGGUCAUUUACAAGAAAAACACACCUCCGGAUUCAUUAUAAAAAUAAACAUCAAAUUGGCAGUGACAGAGCAACUCACAAACUAUUACAACAGAGGAUUGAGCAUCA
# B15: chr10:110602053:110602155:+|CDS|ENSG00000108055|unk|FALSE|unique (ssRNA)
# RNA: GGGAGUUCUACAGUCCGACGAUCCAGUUUGUAAAUUUCUCCGAGCAGAAAGAAAAGUUAAUAAAGCGUCAAGAAGAGUUAGAUAGGGGUUACAAAUCAAUCAUGGAACUGAUGAAUGUACUUGAACUUCGGAAAUAUGAAGCUCAACAGAGGAUUGAGCAUCA
# B16: chr12:132722103:132722204:+|3pUTR|ENSG00000247077|msi1|FALSE|unique (ssRNA)
# RNA: GGGAGUUCUACAGUCCGACGAUCGCUUCGCCUUUGACCUUCAUGCUGGUCUCGGCUGAGGUGACACGCUAGUGACAGCCCAAUAGGGGGUUACCCUUAUUGAGUAAAAUACUUCAGAUUGACAGCUCAAUCUUAGUUUGCCUCCAACAGAGGAUUGAGCAUCA
# B17: chr17:57972098:57972209:-|3pUTR|ENSG00000136451|unk|total|mutant (ssRNA)
# RNA: GGGAGUUCUACAGUCCGACGAUCCCCGAAUGUGGUUGUCAGAACCCUGAAAGUAUCCGUUCUAAAAAAAAAAAGAUAUAUACCCGAAGUAAUUGUUUUAUCAAUUCAUUGUAUAAUAAACAGGAGUGAGACUUCAUUGUAUGACAACAGAGGAUUGAGCAUCA
# B18: chr1:23094017:23094118:-|CDS|ENSG00000169641|unk|total|mutant (ssRNA)
# RNA: GGGAGUUCUACAGUCCGACGAUCCUCCAGAAAGCAGAGGAUGAACUCCUGGAUCUCCAGGACAAGGUGAUUCAGGCAGAAGGCCGCAACUCCAGCAUGUUGGCGGAGAUUGAAGUGCUGCGCCAGCGGGUGCUGAGAAUUGAACAACAGAGGAUUGAGCAUCA
# B19: ENSG00000070961:be:win_851|CDS|ENSG00000070961|bound_else_gene|NA|bound_elsewhere_windowed (ssRNA)
# RNA: GGGAGUUCUACAGUCCGACGAUCCUGGAAUUAUCUUUACCUUACUUGGAGCUGGAGGUGAAGAGGAAGAGAAGAAAGAUGAGAAGAAAAAGGAAAAGAAAAAUAAGAAACAAGAUGGAGCUAUUGAGAAUCGCAACAAAGCAACAACAGAGGAUUGAGCAUCA
# B20: chr1:151800263:151800922:-|three_prime_utr|ENSG00000213171|control|control|control (ssRNA)
# RNA: GGGAGUUCUACAGUCCGACGAUCCCAAGUCCGCUUCAGAUACCAAAGGGGAAGACAGAACCAAGGCUGCUUGAACCAGAACCUAGUCCCGAGCAGCACCGCUCUCCUGCACCUCCCGCCUGCGUUGUGCCUCCUGCCGGAGAGCAACAGAGGAUUGAGCAUCA
# B21: ENSG00000143742:stop:overlap|stop_codon|ENSG00000143742|stop_codon|NA|stop_codon (ssRNA)
# RNA: GGGAGUUCUACAGUCCGACGAUCAAUAUAGGCAUUCUGAUGGGAACUUGUGUGUUAAAGUAACAGAUGAUUUAGUUGAUCAUUAGUUCCUGUUGUUUAAAACUCAUGUGAACCUUUAAGAUGGGCUGAAGAAAAGUGGAUCUGCAACAGAGGAUUGAGCAUCA
# B22: ENSG00000147130:stop:overlap|stop_codon|ENSG00000147130|stop_codon|NA|stop_codon (ssRNA)
# RNA: GGGAGUUCUACAGUCCGACGAUCAAAAGCGGUUCUGCAACACAACCUGCUUGGGGGCGUACAAGAAGGUGGGGCCGAGGGAGUAGUGCAUUAGAGGGCUGUGGAAGGGGGUGUGGUUCUUGGGUUAUAAAUAAAGGUGGCUGACAACAGAGGAUUGAGCAUCA
# Biological target: T1, UNK ZnF1-6 (called full-length) (human, UniProt Q9C0B0 30-357)
# T1 sequence: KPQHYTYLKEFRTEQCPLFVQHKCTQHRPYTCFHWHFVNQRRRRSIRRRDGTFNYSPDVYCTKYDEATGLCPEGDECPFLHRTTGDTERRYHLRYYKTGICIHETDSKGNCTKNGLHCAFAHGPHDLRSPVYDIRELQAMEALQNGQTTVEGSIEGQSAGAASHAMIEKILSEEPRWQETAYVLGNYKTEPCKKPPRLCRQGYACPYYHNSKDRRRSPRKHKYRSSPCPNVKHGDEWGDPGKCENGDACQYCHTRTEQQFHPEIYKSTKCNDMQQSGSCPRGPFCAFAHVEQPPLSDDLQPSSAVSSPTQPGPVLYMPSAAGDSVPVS
# Experiment: nsRBNS (natural sequence RNA bind-n-seq); RBNS binding buffer (assumed for nsRBNS): 25 mM Tris pH 7.5, 150 mM KCl, 3 mM MgCl2, 0.01% Triton X-100, 500 ug/ml BSA, 20 U/ml SUPERase-In, 4 C; UNK is unkempt and MSI1 is Musashi-1; names of the RNAs are library labels; protein concentration not given here; high values mean tight binding
row,Binder,binding signal [enrichment R]
1,B1,0.556
2,B2,0.512
3,B3,0.445
4,B4,0.485
5,B5,0.824
6,B6,0.625
7,B7,0.455
8,B8,1.29
9,B9,0.906
10,B10,1.26
11,B11,0.593
12,B12,0.523
13,B13,0.628
14,B14,0.703
15,B15,0.451
16,B16,0.467
17,B17,0.54
18,B18,0.488
19,B19,0.976
20,B20,0.643
21,B21,0.904
22,B22,0.689
